Among the test systems are WM115; WM1716; WM1745; WM3526; WM3619; WM451Lu.
Common to all, as to assay: cell count relative to DMSO control; melanoma cells; higher = more viable cells
Common to all, as to settings: library dose: low library concentration; 72 h

Cell count data for 22 compounds are collected here from the supplement of paper PMC4604168 (melanoma cell lines).

The list shows a part of the results. Repeats are few or missing, and single values can be far off.
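Note: cell number obtained by counting DAPI-stained nuclei in high-throughput microscope images with image analysis software, screen run in 1,536-well plates.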

Consider `CCN(CC)CCNC(=O)c1c(C)[nH]c(/C=C2\C(=O)Nc3ccc(F)cc32)c1C` [sunitinib] + O=C1NC(=O)/C(=C/c2ccc(-c3ccc(F)cc3O)o2)S1 [AS252424] (first compound 0.4 µM, partner dose 1 µM), for which the cell count with WM115 was found to be 110%; in the assay with WM1716, 117%; with WM1745, 88.2%; with WM3526 it was 75.4%; in the assay with WM3619, 120%; with WM451Lu, 97.5%.
With `COc1cc([C@@H]2c3cc4c(cc3[C@@H](O[C@@H]3O[C@@H]5CO[C@@H](C)O[C@H]5[C@H](O)[C@H]3O)[C@H]3COC(=O)[C@H]23)OCO4)cc(OC)c1O` [etoposide] + O=C1NC(=O)/C(=C/c2ccc(-c3ccc(F)cc3O)o2)S1 [AS252424] (first compound 0.02 µM, partner dose 1 µM), the cell count in the assay with WM115 came out at 82.6%; with WM1716 it was 92.6%; in the assay on WM1745, 90.4%; with WM3526, 90%; with WM3619, 107%; in the assay with WM451Lu it was 129%.
Turning to `C[C@]1(O)C[C@@H](c2nc(-c3ccc4ccc(-c5ccccc5)nc4c3)c3c(N)nccn32)C1` + COc1cc2ncnc(Nc3ccc(Oc4ccccc4)cc3)c2cc1OC [SrcI1] (first compound 0.4 µM, partner dose 2 µM), the cell count in the assay on WM115 was 112%; with WM1716, 126%; with WM1745 it was 66.8%; in the assay with WM3526, 84%; with WM3619 it was 92.1%; in the assay on WM451Lu, 113%.
On to `COc1cc([C@@H]2c3cc4c(cc3[C@@H](O[C@@H]3O[C@@H]5CO[C@@H](C)O[C@H]5[C@H](O)[C@H]3O)[C@H]3COC(=O)[C@H]23)OCO4)cc(OC)c1O` [etoposide] + COc1ccc(C2=N[C@@H](c3ccc(Cl)cc3)[C@@H](c3ccc(Cl)cc3)N2C(=O)N2CCNC(=O)C2)c(OC(C)C)c1 [Nutlin-3] (first compound 0.02 µM, partner dose 0.1 µM), for which the cell count in the assay with WM115 was 89.8%; in the assay on WM1716, 105%; in the assay with WM1745, 96.9%; in the assay with WM3526, 77.3%; in the assay with WM3619, 87.9%; with WM451Lu, 112%.
As to `Cn1cnc2c(F)c(Nc3ccc(Br)cc3Cl)c(C(=O)NOCCO)cc21` [selumetinib] + N#Cc1c(O)c2c(-c3ccc(-c4ccccc4O)cc3)csc2[nH]c1=O [A769662] (first compound 0.015 µM, partner dose 2 µM), the cell count was 92.2% in the assay on WM115; 109% in the assay with WM1716; 96.9% with WM1745; 81.4% in the assay on WM3526; 85.7% in the assay with WM3619; 106% in the assay with WM451Lu.
In the case of `CCN(CC)CCNC(=O)c1c(C)[nH]c(/C=C2\C(=O)Nc3ccc(F)cc32)c1C` [sunitinib] + COc1cc2c(Oc3ccc4[nH]c(C)cc4c3F)ncnc2cc1OCCCN1CCCC1 [cediranib] (first compound 0.4 µM, partner dose 0.4 µM), the cell count with WM115 stood at 89.4%; in the assay on WM1716 it was 119%; in the assay on WM1745, 83%; in the assay with WM3526, 94%; in the assay with WM3619 it was 106%; with WM451Lu, 81.6%.
With `CCN(CC)CCNC(=O)c1c(C)[nH]c(/C=C2\C(=O)Nc3ccc(F)cc32)c1C` [sunitinib] + COc1cc(Nc2ncc(F)c(Nc3ccc4c(n3)NC(=O)C(C)(C)O4)n2)cc(OC)c1OC [Tamatinib] (first compound 0.4 µM, partner dose 0.4 µM), the cell count with WM115 was determined as 90%; in the assay with WM1716, 116%; in the assay with WM1745, 65.6%; in the assay on WM3526, 84.2%; in the assay on WM3619, 96.3%; with WM451Lu it was 111%.
For `Cn1cnc2c(F)c(Nc3ccc(Br)cc3Cl)c(C(=O)NOCCO)cc21` [selumetinib] + COc1ccc(C2=N[C@@H](c3ccc(Cl)cc3)[C@@H](c3ccc(Cl)cc3)N2C(=O)N2CCNC(=O)C2)c(OC(C)C)c1 [Nutlin-3] (first compound 0.015 µM, partner dose 0.1 µM), the cell count in the assay on WM115 stood at 91.5%; in the assay with WM1716, 102%; with WM1745, 101%; in the assay on WM3526, 95%; with WM3619, 63.4%; with WM451Lu, 100%.
Regarding `COc1cc([C@@H]2c3cc4c(cc3[C@@H](O[C@@H]3O[C@@H]5CO[C@@H](C)O[C@H]5[C@H](O)[C@H]3O)[C@H]3COC(=O)[C@H]23)OCO4)cc(OC)c1O` [etoposide] + CC1(C)NC(=O)N(c2ccc([N+](=O)[O-])c(C(F)(F)F)c2)C1=O [nilutamide] (first compound 0.02 µM, partner dose 1 µM), the cell count with WM115 came to 89.1%; in the assay on WM1716 it was 91.9%; with WM1745, 95.2%; with WM3526, 103%; with WM3619, 89.3%; in the assay with WM451Lu it was 101%.
Take `CCN(CC)CCNC(=O)c1c(C)[nH]c(/C=C2\C(=O)Nc3ccc(F)cc32)c1C` [sunitinib] + CS(=O)(=O)CCNCc1ccc(-c2ccc3ncnc(Nc4ccc(OCc5cccc(F)c5)c(Cl)c4)c3c2)o1 [lapatinib] (first compound 0.4 µM, partner dose 0.8 µM): the cell count in the assay on WM115 worked out at 100%; in the assay with WM1716, 126%; in the assay with WM1745, 93.1%; with WM3526, 84.5%; in the assay with WM3619 it was 136%; in the assay with WM451Lu, 97.9%.
For `COc1cc([C@@H]2c3cc4c(cc3[C@@H](O[C@@H]3O[C@@H]5CO[C@@H](C)O[C@H]5[C@H](O)[C@H]3O)[C@H]3COC(=O)[C@H]23)OCO4)cc(OC)c1O` [etoposide] + COc1ccc(-c2ccc3c(N4CCOCC4)nc(N4C[C@@H](C)O[C@@H](C)C4)nc3n2)cc1CO [KU0063794] (first compound 0.02 µM, partner dose 0.02 µM), the cell count in the assay on WM115 amounted to 82.4%; in the assay with WM1716, 91.5%; in the assay on WM1745, 95.9%; in the assay with WM3526, 96.7%; with WM3619, 90.8%; in the assay on WM451Lu, 75.8%.
With `CCN(CC)CCNC(=O)c1c(C)[nH]c(/C=C2\C(=O)Nc3ccc(F)cc32)c1C` [sunitinib] + C=C(c1ccc(C(=O)O)cc1)c1cc2c(cc1C)C(C)(C)CCC2(C)C [Bexarotene] (first compound 0.4 µM, partner dose 2 µM), the cell count came out at 121% in the assay on WM115; 132% in the assay on WM1716; 81.6% in the assay with WM1745; 81.2% in the assay on WM3526; 136% with WM3619; 71.1% with WM451Lu.
`CCN(CC)CCNC(=O)c1c(C)[nH]c(/C=C2\C(=O)Nc3ccc(F)cc32)c1C` [sunitinib] + COC(=O)c1sccc1S(=O)(=O)Nc1ccc(Nc2ccccc2)cc1OC [GSK0660] (first compound 0.4 µM, partner dose 1 µM): the cell count amounted to 102% in the assay on WM115; 132% in the assay on WM1716; 82.6% in the assay on WM1745; 91.6% in the assay on WM3526; 143% with WM3619; 96.3% in the assay on WM451Lu.
With `CCN(CC)CCNC(=O)c1c(C)[nH]c(/C=C2\C(=O)Nc3ccc(F)cc32)c1C` [sunitinib] + CCc1ccc(CCOc2ccc(CC3SC(=O)NC3=O)cc2)nc1 [pioglitazone] (first compound 0.4 µM, partner dose 2 µM), the cell count with WM115 was found to be 101%; in the assay with WM1716 it was 141%; with WM1745 it was 85%; with WM3526, 87.8%; in the assay on WM3619, 154%; with WM451Lu it was 103%.
Turning to `CCN(CC)CCNC(=O)c1c(C)[nH]c(/C=C2\C(=O)Nc3ccc(F)cc32)c1C` [sunitinib] + OCc1c[nH]c2ccccc12 [Indole-3-carbinol] (first compound 0.4 µM, partner dose 0.8 µM), the cell count worked out at 98.3% in the assay on WM115; 118% in the assay with WM1716; 70.8% in the assay with WM1745; 64.7% with WM3526; 132% in the assay with WM3619; 113% with WM451Lu.
As to `CCN(CC)CCNC(=O)c1c(C)[nH]c(/C=C2\C(=O)Nc3ccc(F)cc32)c1C` [sunitinib] + Clc1ccc(Nc2nnc(Cc3ccncc3)c3ccccc23)cc1 [vatalanib] (first compound 0.4 µM, partner dose 2 µM), the cell count was 90.7% in the assay with WM115; 131% in the assay with WM1716; 49.5% in the assay with WM1745; 86.9% in the assay with WM3526; 94.7% in the assay on WM3619; 83.6% with WM451Lu.
As to `Cn1cnc2c(F)c(Nc3ccc(Br)cc3Cl)c(C(=O)NOCCO)cc21` [selumetinib] + Nc1cccc2c1CN(C1CCC(=O)NC1=O)C2=O [lenalidomide] (first compound 0.015 µM, partner dose 1 µM), the cell count in the assay with WM115 came out at 91.8%; with WM1716, 114%; with WM1745, 103%; in the assay on WM3526 it was 83.3%; in the assay with WM3619, 71.5%; in the assay with WM451Lu it was 98.9%.
In the case of `COc1cc([C@@H]2c3cc4c(cc3[C@@H](O[C@@H]3O[C@@H]5CO[C@@H](C)O[C@H]5[C@H](O)[C@H]3O)[C@H]3COC(=O)[C@H]23)OCO4)cc(OC)c1O` [etoposide] + c1cc(-c2cnn3cc(-c4ccc(OCCN5CCCCC5)cc4)cnc23)ccn1 [Dorsomorphin] (first compound 0.02 µM, partner dose 0.4 µM), the cell count with WM115 was 103%; in the assay on WM1716 it was 83.1%; in the assay with WM1745, 78.1%; in the assay with WM3526, 108%; in the assay with WM3619, 94%; in the assay on WM451Lu, 84%.
For the compound `Cn1cnc2c(F)c(Nc3ccc(Br)cc3Cl)c(C(=O)NOCCO)cc21` [selumetinib] + O=C(O)[C@@H]1[O][Sb](=[O])([O][Sb]2(=[O])[O][C@H]([C@H](O)CO)[C@H](O)[C@H](C(=O)O)[O]2)[O][C@H]([C@H](O)CO)[C@@H]1O [stibogluconate] (first compound 0.015 µM, partner dose 2 µM), the cell count with WM115 was found to be 87.4%; in the assay on WM1716, 110%; in the assay on WM1745, 90.1%; with WM3526, 61.9%; in the assay on WM3619, 57.2%; in the assay with WM451Lu it was 96%.
In the case of `C[C@]1(O)C[C@@H](c2nc(-c3ccc4ccc(-c5ccccc5)nc4c3)c3c(N)nccn32)C1` + COc1ccc(Cl)c(Nc2nc3ccccc3nc2NS(=O)(=O)c2cccc(NC(=O)C(C)(C)N)c2)c1 [XL147] (first compound 0.4 µM, partner dose 0.8 µM), the cell count is 100% with WM115; 112% in the assay with WM1716; 79% with WM1745; 77% in the assay on WM3526; 90.8% in the assay with WM3619; 112% in the assay on WM451Lu.
For `COc1cc([C@@H]2c3cc4c(cc3[C@@H](O[C@@H]3O[C@@H]5CO[C@@H](C)O[C@H]5[C@H](O)[C@H]3O)[C@H]3COC(=O)[C@H]23)OCO4)cc(OC)c1O` [etoposide] + Cn1nnc2c(C(N)=O)ncn2c1=O [temozolomide] (first compound 0.02 µM, partner dose 2 µM), the cell count in the assay on WM115 came out at 94%; in the assay on WM1716, 75.7%; in the assay on WM1745, 84.6%; in the assay on WM3526 it was 89.8%; in the assay with WM3619, 85.1%; with WM451Lu, 90.7%.
Take `COc1cc([C@@H]2c3cc4c(cc3[C@@H](O[C@@H]3O[C@@H]5CO[C@@H](C)O[C@H]5[C@H](O)[C@H]3O)[C@H]3COC(=O)[C@H]23)OCO4)cc(OC)c1O` [etoposide] + O=C(O)c1ccc(-c2c[nH]c3ncc(-c4ccccc4)cc23)cc1C1CCCC1 [GSK650394] (first compound 0.02 µM, partner dose 0.16 µM): the cell count with WM115 was found to be 78.2%; in the assay on WM1716 it was 105%; in the assay on WM1745, 88.9%; in the assay with WM3526, 124%; with WM3619 it was 97%; in the assay on WM451Lu it was 76.5%.
